Assay results as given in patent US20170368138A1 (published 2017).

Experiments:
[1] = target: CV-1; assay: flow cytometry, cell binding; monkey CV-1 cells
[2] = target: RF/6A; assay: flow cytometry, cell binding; monkey RF/6A cells
[3] = target: U87MG; assay: flow cytometry, cell binding; human U87MG cells

B1: NOD201 (Fc fusion)
chain: GCPRPRGDNPPLTCSQDSDCLAGCVCGPNGFCG[gap - human IgG1 Fc with changes]
[1]
  Kd: 1.5 nM
[2]
  Kd: 0.5 nM
[3]
  Kd: 1.6 nM
